Laboratory results as given in the supplement of paper PMC8728848.
This is one part of the list.

Experiments:
Assay in all cases: glycan array binding signal (z-score within array); higher = stronger binding
Settings in all cases: glycan notation: IUPAC condensed, linker removed
[1] = molecular target: Gal(b1-3)[Fuc(a1-4)]GlcNAc(b1-3)Gal(b1-4)GlcNAc
How it was run: (§1)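 From the Consortium for Functional Glycomics database, 3228 arrays were curated, keeping only those whose protein sequence was available. Binding is given as a within-array Z-score averaged across arrays sharing a protein sequence and across linkers. Negative Z-scores can be read as non-binding.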

[2] = molecular target: Gal(b1-3)[Fuc(a1-4)]GlcNAc(b1-3)Gal(b1-4)[Fuc(a1-3)]GlcNAc
How it was run: as §1

[3] = molecular target: Gal(b1-3)[GlcNAc(b1-6)]GalNAc
How it was run: as §1

[4] = molecular target: Gal(b1-3)[Neu5Ac(a2-6)]GalNAc
How it was run: as §1

[5] = molecular target: Gal(b1-3)[Neu5Ac(a2-6)]GlcNAc(b1-6)Gal(b1-4)Glc
How it was run: as §1

[6] = molecular target: Gal(b1-3)[Neu5Ac(b2-6)]GalNAc
How it was run: as §1

[7] = molecular target: Gal(b1-4)Gal
How it was run: as §1

[8] = molecular target: Gal(b1-4)GalNAc(a1-3)[Fuc(a1-2)]Gal(b1-4)GlcNAc
How it was run: as §1

[9] = molecular target: Gal(b1-4)GalNAc(b1-3)[Fuc(a1-2)]Gal(b1-4)GlcNAc
How it was run: as §1

[10] = molecular target: Gal(b1-4)Glc
How it was run: as §1

[11] = molecular target: Gal(b1-4)Glc6S
How it was run: as §1

[12] = molecular target: Gal(b1-4)GlcNAc
How it was run: as §1

[13] = molecular target: Gal(b1-4)GlcNAc(a1-6)Gal(b1-4)GlcNAc
How it was run: as §1

[14] = molecular target: Gal(b1-4)GlcNAc(b1-2)Man
How it was run: as §1

[15] = molecular target: Gal(b1-4)GlcNAc(b1-2)Man(a1-3)Man(b1-4)GlcNAc(b1-4)GlcNAc
How it was run: as §1

[16] = molecular target: Gal(b1-4)GlcNAc(b1-2)Man(a1-3)[Gal(b1-4)GlcNAc(b1-2)Man(a1-6)]Man(b1-4)GlcNAc(b1-4)GlcNAc
How it was run: as §1

[17] = molecular target: Gal(b1-4)GlcNAc(b1-2)Man(a1-3)[Gal(b1-4)GlcNAc(b1-2)Man(a1-6)]Man(b1-4)GlcNAc(b1-4)[Fuc(a1-6)]GlcNAc
How it was run: as §1

[18] = molecular target: Gal(b1-4)GlcNAc(b1-2)Man(a1-3)[Gal(b1-4)GlcNAc(b1-2)][GlcNAc(b1-4)]Man(b1-4)GlcNAc(b1-4)GlcNAc
How it was run: as §1

[19] = molecular target: Gal(b1-4)GlcNAc(b1-2)Man(a1-3)[GlcNAc(b1-2)Man(a1-6)]Man(b1-4)GlcNAc(b1-4)GlcNAc
How it was run: as §1

[20] = molecular target: Gal(b1-4)GlcNAc(b1-2)Man(a1-3)[Man(a1-6)]Man(b1-4)GlcNAc(b1-4)GlcNAc
How it was run: as §1

[21] = molecular target: Gal(b1-4)GlcNAc(b1-2)Man(a1-6)Man(b1-4)GlcNAc(b1-4)GlcNAc
How it was run: as §1

[22] = molecular target: Gal(b1-4)GlcNAc(b1-2)Man(a1-6)[GlcNAc(b1-2)Man(a1-3)]Man(b1-4)GlcNAc(b1-4)GlcNAc
How it was run: as §1

[23] = molecular target: Gal(b1-4)GlcNAc(b1-2)Man(a1-6)[Man(a1-3)]Man(b1-4)GlcNAc(b1-4)GlcNAc
How it was run: as §1

[24] = molecular target: Gal(b1-4)GlcNAc(b1-2)[Gal(b1-4)GlcNAc(b1-4)]Man(a1-3)[Gal(b1-4)GlcNAc(b1-2)Man(a1-6)]Man(b1-4)GlcNAc(b1-4)GlcNAc
How it was run: as §1

[25] = molecular target: Gal(b1-4)GlcNAc(b1-2)[Gal(b1-4)GlcNAc(b1-4)]Man(a1-3)[Gal(b1-4)GlcNAc(b1-2)[Gal(b1-4)GlcNAc(b1-6)]Man(a1-6)]Man(b1-4)GlcNAc(b1-4)GlcNAc
How it was run: as §1

[26] = molecular target: Gal(b1-4)GlcNAc(b1-2)[Gal(b1-4)GlcNAc(b1-4)]Man(a1-3)[GlcNAc(b1-4)][Gal(b1-4)GlcNAc(b1-2)Man(a1-6)]Man(b1-4)GlcNAc(b1-4)GlcNAc
How it was run: as §1

[27] = molecular target: Gal(b1-4)GlcNAc(b1-2)[Gal(b1-4)GlcNAc(b1-4)]Man(a1-3)[GlcNAc(b1-4)][Gal(b1-4)GlcNAc(b1-2)[Gal(b1-4)GlcNAc(b1-6)]Man(a1-6)]Man(b1-4)GlcNAc(b1-4)GlcNAc
How it was run: as §1

[28] = molecular target: Gal(b1-4)GlcNAc(b1-2)[Gal(b1-4)GlcNAc(b1-6)]Man(a1-6)[Gal(b1-4)GlcNAc(b1-2)Man(a1-3)]Man(b1-4)GlcNAc(b1-4)GlcNAc
How it was run: as §1

[29] = molecular target: Gal(b1-4)GlcNAc(b1-2)[Gal(b1-4)GlcNAc(b1-6)]Man(a1-6)[GlcNAc(b1-4)][Gal(b1-4)GlcNAc(b1-2)Man(a1-3)]Man(b1-4)GlcNAc(b1-4)GlcNAc
How it was run: as §1

[30] = molecular target: Gal(b1-4)GlcNAc(b1-3)Gal(b1-3)GlcNAc
How it was run: as §1

[31] = molecular target: Gal(b1-4)GlcNAc(b1-3)Gal(b1-4)Glc
How it was run: as §1

[32] = molecular target: Gal(b1-4)GlcNAc(b1-3)Gal(b1-4)GlcNAc
How it was run: as §1

[33] = molecular target: Gal(b1-4)GlcNAc(b1-3)Gal(b1-4)GlcNAc(b1-3)Gal(b1-4)GlcNAc
How it was run: as §1

[34] = molecular target: Gal(b1-4)GlcNAc(b1-3)Gal(b1-4)[Fuc(a1-3)GlcNAc(b1-6)]Gal(b1-4)Glc
How it was run: as §1

[35] = molecular target: Gal(b1-4)GlcNAc(b1-3)Gal(b1-4)[Fuc(a1-3)]GlcNAc(b1-3)Gal(b1-4)[Fuc(a1-3)]GlcNAc
How it was run: as §1

[36] = molecular target: Gal(b1-4)GlcNAc(b1-3)GalNAc
How it was run: as §1

[37] = molecular target: Gal(b1-4)GlcNAc(b1-3)[Gal(b1-4)GlcNAc(b1-6)]Gal(b1-4)GlcNAc
How it was run: as §1

[38] = molecular target: Gal(b1-4)GlcNAc(b1-3)[Gal(b1-4)GlcNAc(b1-6)]GalNAc
How it was run: as §1

[39] = molecular target: Gal(b1-4)GlcNAc(b1-3)[GlcNAc(b1-6)]Gal(b1-4)GlcNAc
How it was run: as §1

[40] = molecular target: Gal(b1-4)GlcNAc(b1-6)Gal(b1-4)GlcNAc
How it was run: as §1

[41] = molecular target: Gal(b1-4)GlcNAc(b1-6)GalNAc
How it was run: as §1

[42] = molecular target: Gal(b1-4)GlcNAc(b1-6)[Gal(b1-3)]GalNAc
How it was run: as §1

[43] = molecular target: Gal(b1-6)Gal
How it was run: as §1

[44] = molecular target: Gal3S(b1-3)GalNAc
How it was run: as §1

[45] = molecular target: Gal3S(b1-3)GlcNAc
How it was run: as §1

B1: PpFlo3 (Pichia pastoris) (protein)
chain: MGSSHHHHHHSSGLVPRGSHMQESGNGTTSDTAYACDIGATPFDGFNATIYQYQASDDNSIQDPVFMSTGYLQRNQLHSTTGVTNPGFNIFTAGVATTTLYGIPNVNYQNMLLELKGYFRADASGNYGLSLRNIDDSAILFFGRETAFECCNENLIPLDEAPTDYSLFTIKEGEASTNPDSYTYTQYLEAGRYYPVRTFFANIRTRAVFNFTMTLPDGSELTDFQNYIFQFGALNQ
For B1, which “glycan array binding signal (z-score)” value [1] is on record?
Its value is -0.256.

What about the “glycan array binding signal (z-score)” value [2] of the same binder?
The value was -0.194.

What about the “glycan array binding signal (z-score)” value [3] of the same binder?
The value was -0.083.

And the “glycan array binding signal (z-score)” value [4]?
Its value is -0.274.

What about the “glycan array binding signal (z-score)” value [5] of the same binder?
The value was -0.226.

What about the “glycan array binding signal (z-score)” value [6] of the same binder?
The value was 0.357.

What about the “glycan array binding signal (z-score)” value [7] of the same binder?
Its value is -0.269.

And the “glycan array binding signal (z-score)” value [8]?
Its value is -0.188.

And the “glycan array binding signal (z-score)” value [9]?
Its value is 0.675.

And the “glycan array binding signal (z-score)” value [10]?
The value was -0.279.

And the “glycan array binding signal (z-score)” value [11]?
Its value is 4.38.

And the “glycan array binding signal (z-score)” value [12]?
The value was -0.258.

And the “glycan array binding signal (z-score)” value [13]?
The value was -0.276.

What about the “glycan array binding signal (z-score)” value [14] of the same binder?
Its value is -0.275.

And the “glycan array binding signal (z-score)” value [15]?
The value was -0.233.

And the “glycan array binding signal (z-score)” value [16]?
The value was -0.274.

What about the “glycan array binding signal (z-score)” value [17] of the same binder?
The value was -0.276.

And the “glycan array binding signal (z-score)” value [18]?
Its value is -0.307.

And the “glycan array binding signal (z-score)” value [19]?
Its value is -0.246.

What about the “glycan array binding signal (z-score)” value [20] of the same binder?
The value was -0.233.

And the “glycan array binding signal (z-score)” value [21]?
Its value is -0.256.

And the “glycan array binding signal (z-score)” value [22]?
Its value is 4.01.

What about the “glycan array binding signal (z-score)” value [23] of the same binder?
Its value is -0.108.

And the “glycan array binding signal (z-score)” value [24]?
The value was -0.279.

What about the “glycan array binding signal (z-score)” value [25] of the same binder?
Its value is -0.229.

What about the “glycan array binding signal (z-score)” value [26] of the same binder?
Its value is -0.285.

What about the “glycan array binding signal (z-score)” value [27] of the same binder?
The value was -0.245.

And the “glycan array binding signal (z-score)” value [28]?
Its value is -0.251.

What about the “glycan array binding signal (z-score)” value [29] of the same binder?
Its value is -0.288.

And the “glycan array binding signal (z-score)” value [30]?
The value was 0.131.

And the “glycan array binding signal (z-score)” value [31]?
Its value is -0.28.

What about the “glycan array binding signal (z-score)” value [32] of the same binder?
The value was 0.122.

What about the “glycan array binding signal (z-score)” value [33] of the same binder?
The value was -0.284.

What about the “glycan array binding signal (z-score)” value [34] of the same binder?
Its value is -0.282.

What about the “glycan array binding signal (z-score)” value [35] of the same binder?
The value was -0.266.

What about the “glycan array binding signal (z-score)” value [36] of the same binder?
The value was -0.236.

And the “glycan array binding signal (z-score)” value [37]?
Its value is -0.277.

What about the “glycan array binding signal (z-score)” value [38] of the same binder?
The value was -0.249.

What about the “glycan array binding signal (z-score)” value [39] of the same binder?
The value was -0.276.

What about the “glycan array binding signal (z-score)” value [40] of the same binder?
Its value is -0.284.

What about the “glycan array binding signal (z-score)” value [41] of the same binder?
The value was -0.284.

What about the “glycan array binding signal (z-score)” value [42] of the same binder?
The value was -0.293.

What about the “glycan array binding signal (z-score)” value [43] of the same binder?
Its value is -0.281.

What about the “glycan array binding signal (z-score)” value [44] of the same binder?
Its value is -0.166.

And the “glycan array binding signal (z-score)” value [45]?
Its value is -0.271.
